PubChem BioAssay AID485294 (National Center for Advancing Translational Sciences (NCATS), 2010)
In all, about 370,000 compounds went through this assay and about 150 (0.041%) were called active. The shares of active, inactive and inconclusive entries below differ from those in the screen. Calls follow the shape of the dose curve; as a rule, active = well fitted inhibition curve with a large enough effect; inconclusive = small, poorly fitted or top-dose-only effect; inactive = flat fitted curve, though single readings scatter. No potency is given beside an inconclusive call; the fits are too rough.
Also: nearly all actives have a fitted effect of over 25% in size.
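For activity change, negative = inhibition in this document: 0% = no-compound wells and -100% = no-enzyme wells.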
Potency is read from the fitted curve at half-maximal effect; tags tell the direction and shape of the fitted curve.

These compounds were tested against Beta-lactamase (Escherichia coli (strain K12)) (UniProt P00811) (assay: qHTS Inhibitors of AmpC Beta-Lactamase (assay with detergent)). Conditions: AmpC hydrolysis of nitrocefin, absorbance 480 nm, 0.01% Triton; activity change, negative = inhibition: at 114 µM (top of the series).
Chain of UniProt P00811 (P00811 whole entry, looked up): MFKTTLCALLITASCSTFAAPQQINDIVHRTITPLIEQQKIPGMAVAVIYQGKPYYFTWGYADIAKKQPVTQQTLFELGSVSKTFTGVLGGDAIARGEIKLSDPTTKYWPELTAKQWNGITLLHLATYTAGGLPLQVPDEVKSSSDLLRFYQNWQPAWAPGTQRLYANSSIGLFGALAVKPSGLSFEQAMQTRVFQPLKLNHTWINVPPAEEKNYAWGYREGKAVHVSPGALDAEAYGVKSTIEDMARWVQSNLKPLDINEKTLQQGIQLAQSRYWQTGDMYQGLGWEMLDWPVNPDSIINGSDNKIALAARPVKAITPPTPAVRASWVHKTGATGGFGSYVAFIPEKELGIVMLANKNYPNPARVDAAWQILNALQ
Summary of the method: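 20 mM phosphate pH 7.0 + 0.01% (detergent screen) or 0.0001% Triton X-100; 5.3 nM AmpC reagent; cpd preinc 15 min RT; nitrocefin (800 uM stock) to start; A480 q20 s × 4 min; Activity was normalised to no-enzyme and no-compound control wells.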
In the case of `CN(C)CCCOC(=O)c1cc2ccccc2o1`, the “activity change, negative = inhibition” value is reported as inactive: 2.99%.
In the case of `Nc1cc(C(=O)c2cccs2)ccc1Cl`, the Potency is reported as inconclusive [inhibitor, full curve, poor fit].
With `O=c1[nH]c(S)nc2sc3c(c12)CCCC3` the “activity change, negative = inhibition” value was inactive: -5.71%.
In the case of `CCCC(C)NNC(=O)c1cc2ccccc2[nH]1` (stereo unspecified), the Potency is reported as inconclusive [inhibitor, partial curve, poor fit].
`COc1ccc(N2CC(NC(=O)c3cccc4ccccc34)CC2=O)cc1OC` (stereo unspecified) was tested, and the Potency was inconclusive [inhibitor, full curve].
`c1cn(CCCNc2ncnc3nc[nH]c23)cn1` was tested, and the Potency was inconclusive [inhibitor, full curve].
`C=CCn1c(Cc2cccs2)nnc1SCC(=O)c1cccc(Br)c1` was tested, and the Potency was inconclusive [inhibitor, partial curve, poor fit].
In the case of `CCCCc1nc2cc(C(=O)N3CCC[C@H]3CO)ccc2o1`, the “activity change, negative = inhibition” value is reported as inactive: -11.7%.
`O=C(Nc1ccc(Br)cc1F)C1CCN(c2nnc(-n3cccc3)s2)CC1` was tested, and the Potency was inconclusive [inhibitor, full curve, poor fit].
With `COCCOc1ccc(C(F)(F)F)cc1NC(=O)COC(=O)C1=COCCO1` the Potency was inconclusive [inhibitor, single point].
With `CCCC(C)C1C(C#N)=C(N)Oc2c1c(=O)oc1ccccc21` (stereo unspecified) the Potency was inconclusive [inhibitor, single point].
For `c1ccc(-c2n[nH]c3ccccc23)cc1`, the Potency was inconclusive [inhibitor, partial curve].
For `CCN(CC)CCn1c2c(c(SCC(=O)Nc3cc(C)ccc3C)nc1=O)CCC2`, the Potency was inconclusive [inhibitor, full curve].
`CC(C)(C)OC(=O)N1Cc2ccccc2C[C@H]1C(=O)NCC(=O)NCC1CCCO1` (stereo partly specified) was tested, and the “activity change, negative = inhibition” value was inactive: -4.63%.
`CCOC(=O)C1=C(C)N(CCCC(=O)NCc2ccc3c(c2)OCO3)C(=O)NC1c1ccc(Br)cc1` (stereo unspecified) was tested, and the Potency was inconclusive [inhibitor, full curve, poor fit].
`CCc1ccccc1NC(=O)CNC(=O)c1cn(Cc2ccccc2)nc1-c1cccnc1` was tested, and the Potency was inconclusive [inhibitor, partial curve, poor fit].
For `CCc1ccccc1NC(=O)c1ccc([N+](=O)[O-])s1`, the Potency was inconclusive [inhibitor, full curve, poor fit].
For `C=C(C)Cn1c(SCC(=O)O)nc2c1c(=O)[nH]c(=O)n2C`, the Potency was inconclusive [inhibitor, full curve].
`COc1ccc(S(=O)(=O)NC2(C(F)(F)F)N=C(c3ccccc3)NC2=O)cc1` (stereo unspecified) was tested, and the Potency was inconclusive [inhibitor, partial curve, poor fit].
`O=C(NCc1ccco1)c1cnc2ccccn2c1=O` was tested, and the Potency was inconclusive [inhibitor, partial curve].
`COc1ccc(N(C)S(=O)(=O)c2cccc(C(=O)N(C)Cc3ccc(C)o3)c2)cc1` was tested, and the “activity change, negative = inhibition” value was inactive: -0.451%.
`COc1ccccc1NS(=O)(=O)c1cc(NC(=O)CNC(=O)c2cc(C)cc(C)c2)ccc1C` was tested, and the “activity change, negative = inhibition” value was inactive: -0.76%.
For `Nc1c(C(=O)Nc2ccc3c(c2)OCCO3)nnn1Cc1ccccc1Cl`, the Potency was inconclusive [inhibitor, full curve].
`CCCN(CC(=O)Nc1ccccc1C)C(=O)COC(=O)CSc1ccc([N+](=O)[O-])cc1` was tested, and the Potency was inconclusive [inhibitor, partial curve, poor fit].
With `CC(C)(C)c1ccc(NC(=O)C2CCCN(c3cnccn3)C2)cc1` (stereo unspecified) the Potency was “inactive”.
In the case of `O=C(O)CCCC(=O)N1CCc2cc(S(=O)(=O)N3CCc4ccccc43)ccc21`, the Potency is reported as inconclusive [inhibitor, full curve, poor fit].
In the case of `CC(OC(=O)/C=C/c1cccs1)C(=O)NC1CCCCC1C` (stereo unspecified), the “activity change, negative = inhibition” value is reported as inactive: -0.941%.
`COc1ccccc1-c1c(C)oc2c(CN3CCN(C)CC3)c(O)ccc2c1=O` was tested, and the Potency was inconclusive [inhibitor, partial curve].
`COc1ccc(C(=O)OCCCN(C)C)cc1OC` was tested, and the “activity change, negative = inhibition” value was inactive: -6.5%.
`CCOc1ccc(NC(=O)c2ccc(OCC3CCCO3)cc2)cc1S(=O)(=O)N(CC)CC` (stereo unspecified) was tested, and the Potency was inconclusive [inhibitor, full curve, poor fit].
With `CCNC(=O)COc1cccc2ccccc12` the Potency was inconclusive [inhibitor, full curve].
For `COc1ccccc1CNC(=S)NC1CCCCC1`, the Potency was inconclusive [inhibitor, full curve, poor fit].
With `O=C(NCC1CCCO1)C1CCN(S(=O)(=O)Cc2ccccc2)CC1` (stereo unspecified) the Potency was inconclusive [inhibitor, full curve, poor fit].
In the case of `Cc1c(Cl)cccc1NC(=O)CCN1CCC(C(N)=O)CC1`, the Potency is reported as inconclusive [inhibitor, partial curve, poor fit].
For `CCOC(=O)N1CCN(C(=O)C(C)NC(=O)c2ccco2)CC1` (stereo unspecified), the Potency was inconclusive [inhibitor, partial curve].
For `O=C(/C=C/c1ccccc1)c1ccc2c(c1)OCO2`, the “activity change, negative = inhibition” value was inactive: 5.42%.
With `O=C(COc1ccc(Cl)cc1Cl)Nc1nc2n(n1)C(c1ccccc1)CC(=O)N2` (stereo unspecified) the Potency was inconclusive [inhibitor, full curve].
In the case of `CCCNC(=O)c1c(N)n(-c2ccc3c(c2)OCO3)c2nc3ccccc3nc12`, the “activity change, negative = inhibition” value is reported as inactive: 4.99%.
`Cc1nn(-c2ccccc2)c(OC(=O)C(C)C)c1Sc1ccc(Cl)cc1` was tested, and the Potency was inconclusive [inhibitor, partial curve, poor fit].
With `CC(Sc1nc2ccccc2c(=O)n1C)C(=O)Nc1ccc2c(c1)OCCO2` (stereo unspecified) the Potency was inconclusive [inhibitor, partial curve, poor fit].
With `O=C(Cc1ccccc1)NCCC1=CCCCC1` the Potency was inconclusive [inhibitor, full curve, poor fit].
`CCSC1=NC2(CCCCC2)Nc2sc3c(c21)CCCC3` was tested, and the Potency was inconclusive [inhibitor, partial curve, poor fit].
In the case of `CCN1CCCC1CNC(=O)Cn1cc2c(n1)CCC(C)C2` (stereo unspecified), the Potency is reported as inconclusive [inhibitor, full curve, poor fit].
For `CC(=O)c1cccc(-n2c(=O)c3c4c(sc3n(CC(=O)c3ccccc3)c2=O)CN(C(C)=O)CC4)c1`, the “activity change, negative = inhibition” value was inactive: 7.69%.
In the case of `Cc1ccc2c(c1)NC(=O)C(CC(=O)NCCCN1CCCCC1)O2` (stereo unspecified), the Potency is reported as inconclusive [inhibitor, full curve].
For `Cc1nc(C)c(-c2ccc(SCC(=O)Nc3ccc(Br)cc3)nn2)s1`, the “activity change, negative = inhibition” value was inactive: -9.73%.
`O=S(=O)(N1CCOCC1)N1CCOCC1` was tested, and the Potency was inconclusive [inhibitor, full curve, poor fit].
`NC(=O)C1CCN(C(=O)c2ccc(NS(=O)(=O)c3ccc(Br)s3)cc2)CC1` was tested, and the Potency was inconclusive [inhibitor, partial curve].
`Cc1ccccc1-n1c(/C=C/c2ccc(O)cc2)nc2ccccc2c1=O` was tested, and the “activity change, negative = inhibition” value was inactive: 19.5%.
`Cc1cc(OC(=O)c2ccco2)c2c3c(c(=O)oc2c1)CCCC3` was tested, and the Potency was inconclusive [inhibitor, full curve, poor fit].
For `C/C(=N\NC(=O)c1ccccc1O)c1ccc(Br)s1`, the Potency was inconclusive [inhibitor, single point].
With `Cc1c(Br)c([N+](=O)[O-])nn1CC(=O)NCc1ccccc1` the Potency was inconclusive [inhibitor, full curve, poor fit].
`CNC(=O)CCn1nc(-c2ccccc2)c2ccccc2c1=O` was tested, and the Potency was inconclusive [inhibitor, full curve, poor fit].
`CCC(OC(=O)c1cc2sccc2n1C)C(=O)NCC1CCCO1` (stereo unspecified) was tested, and the Potency was inconclusive [inhibitor, full curve, poor fit].
With `COc1ccc(C2C(C(=O)c3ccc(C)o3)=C(O)C(=O)N2Cc2cccnc2)cc1OC` (stereo unspecified) the Potency was inconclusive [inhibitor, full curve, poor fit].
For `COc1ccccc1NC(=O)c1ccc(-c2ccccc2F)o1`, the Potency was inconclusive [inhibitor, partial curve, poor fit].
With `O=c1[nH]c2c(c3c1CCCC3)CCCC2` the Potency was inconclusive [inhibitor, full curve, poor fit].
With `Cc1cccc(NC(=O)CC2c3ccccc3Oc3ccccc32)c1` the Potency was inconclusive [inhibitor, full curve, poor fit].
With `CCCCNC(=O)COc1ccccc1C(=O)c1cc(C#N)c(=O)n(CCOC)c1` the Potency was inconclusive [inhibitor, partial curve].
With `CC(NC(=O)C1CCC(=O)N1Cc1ccc(F)cc1)c1ccc2c(c1)OCCO2` (stereo unspecified) the Potency was inconclusive [inhibitor, full curve, poor fit].
In the case of `O=C(NNc1ccc([N+](=O)[O-])cc1)c1ccccc1F`, the “activity change, negative = inhibition” value is reported as inactive: 3.84%.
With `COc1ccccc1C(=O)NNC1=NS(=O)(=O)c2ccccc21` the Potency was inconclusive [inhibitor, full curve, poor fit].
For `COc1ccccc1NC(=O)c1cnc(SCC(=O)NCC2CCCO2)n(C)c1=O` (stereo unspecified), the Potency was inconclusive [inhibitor, full curve, poor fit].
For `CCn1c(C)c(C2N3CC4(C)CN2CC(C)(C3)C4=O)c2ccccc21` (stereo unspecified), the “activity change, negative = inhibition” value was inactive: 1.88%.
With `COc1ccc(-c2cn3cc(C)ccc3n2)cc1OC` the Potency was inconclusive [inhibitor, partial curve].
`O=C(CCNC(=O)N1CCn2c1nc1ccccc12)NCc1ccc(F)cc1` was tested, and the Potency was inconclusive [inhibitor, full curve, poor fit].
